Results published in the supplement of paper PMC8728848.
The other results are listed elsewhere or left out.

Legend:
Assay in all cases: glycan array binding signal (z-score within array); higher = stronger binding
Conditions in all cases: glycan notation: IUPAC condensed, linker removed
[1] = molecular target: Fuc(a1-2)[GalNAc(a1-3)]Gal(b1-4)GlcNAc(b1-3)Gal(b1-4)GlcNAc
In short: (§1)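 Glycan array data came from 3228 arrays in the Consortium for Functional Glycomics database, and only arrays with an available protein sequence were kept. Glycan names were put into IUPAC-condensed notation, and columns mapping to the same glycan were averaged. The binding signal is a within-array Z-score, averaged across arrays of one protein sequence run at different concentrations or buffers and across linkers. A negative Z-score can be read as non-binding.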

[2] = molecular target: Fuc(a1-2)[GalNAc(a1-3)]Gal(b1-4)GlcNAc(b1-3)Gal(b1-4)GlcNAc(b1-3)Gal(b1-4)GlcNAc
In short: as §1

[3] = molecular target: Fuc(a1-2)[GalNAc(a1-3)]Gal(b1-4)GlcNAc(b1-3)GalNAc
In short: as §1

[4] = molecular target: Fuc(a1-2)[GalNAc(a1-3)]Gal(b1-4)[Fuc(a1-3)]GlcNAc
In short: as §1

[5] = molecular target: Fuc(a1-2)[GalNAc(a1-3)]Gal(b1-4)[Fuc(a1-3)]GlcNAc(b1-3)GalNAc
In short: as §1

[6] = molecular target: Fuc(a1-2)[GalNAc(a1-4)]Gal(b1-4)GlcNAc
In short: as §1

[7] = molecular target: Fuc(a1-2)[GalNAc(b1-3)]Gal
In short: as §1

[8] = molecular target: Fuc(a1-3)GlcNAc
In short: as §1

[9] = molecular target: Fuc(a1-3)[Gal(b1-4)]Glc6S
In short: as §1

[10] = molecular target: Fuc(a1-3)[Gal(b1-4)]GlcNAc
In short: as §1

[11] = molecular target: Fuc(a1-3)[Gal(b1-4)]GlcNAc(b1-2)Man
In short: as §1

[12] = molecular target: Fuc(a1-3)[Gal(b1-4)]GlcNAc(b1-2)Man(a1-3)[Fuc(a1-3)[Gal(b1-4)]GlcNAc(b1-2)Man(a1-6)]Man(b1-4)GlcNAc(b1-4)GlcNAc
In short: as §1

[13] = molecular target: Fuc(a1-3)[Gal(b1-4)]GlcNAc(b1-2)Man(a1-3)[Fuc(a1-3)[Gal(b1-4)]GlcNAc(b1-2)Man(a1-6)]Man(b1-4)GlcNAc(b1-4)[Fuc(a1-6)]GlcNAc
In short: as §1

[14] = molecular target: Fuc(a1-3)[Gal(b1-4)]GlcNAc(b1-3)Gal(b1-3)[Fuc(a1-4)]GlcNAc
In short: as §1

[15] = molecular target: Fuc(a1-3)[Gal(b1-4)]GlcNAc(b1-3)GalNAc
In short: as §1

[16] = molecular target: Fuc(a1-3)[Gal(b1-4)]GlcNAc(b1-4)Gal(b1-4)[Fuc(a1-3)]GlcNAc
In short: as §1

[17] = molecular target: Fuc(a1-3)[Gal(b1-4)]GlcNAc(b1-4)Gal(b1-4)[Fuc(a1-3)]GlcNAc(b1-4)Gal(b1-4)[Fuc(a1-3)]GlcNAc
In short: as §1

[18] = molecular target: Fuc(a1-3)[Gal(b1-4)]GlcNAc(b1-6)GalNAc
In short: as §1

[19] = molecular target: Fuc(a1-3)[Gal(b1-4)]GlcNAc(b1-6)[Gal(b1-3)GlcNAc(b1-3)]Gal(b1-4)Glc
In short: as §1

[20] = molecular target: Fuc(a1-3)[Gal(b1-4)]GlcNAc(b1-6)[Neu5Ac(a2-3)Gal(b1-3)]GalNAc
In short: as §1

[21] = molecular target: Fuc(a1-3)[Gal(b1-4)]GlcNAc6S
In short: as §1

[22] = molecular target: Fuc(a1-3)[Gal3S(b1-4)]GlcNAc
In short: as §1

[23] = molecular target: Fuc(a1-3)[Gal3S(b1-4)]GlcNAc6S
In short: as §1

[24] = molecular target: Fuc(a1-3)[GalNAc(b1-4)]GlcNAc
In short: as §1

[25] = molecular target: Fuc(a1-3)[GalNAc(b1-4)]GlcNAc6S
In short: as §1

[26] = molecular target: Fuc(a1-3)[GalNAc3S(b1-4)]GlcNAc
In short: as §1

[27] = molecular target: Fuc(a1-4)GlcNAc
In short: as §1

[28] = molecular target: Fuc(b1-3)GlcNAc
In short: as §1

[29] = molecular target: Gal(a1-2)Gal
In short: as §1

[30] = molecular target: Gal(a1-3)Gal
In short: as §1

[31] = molecular target: Gal(a1-3)Gal(b1-3)GlcNAc
In short: as §1

[32] = molecular target: Gal(a1-3)Gal(b1-3)GlcNAc(b1-2)Man(a1-3)[Gal(a1-3)Gal(b1-3)GlcNAc(b1-2)Man(a1-6)]Man(b1-4)GlcNAc(b1-4)GlcNAc
In short: as §1

[33] = molecular target: Gal(a1-3)Gal(b1-3)GlcNAc(b1-3)GalNAc
In short: as §1

[34] = molecular target: Gal(a1-3)Gal(b1-3)GlcNAc(b1-6)GalNAc
In short: as §1

[35] = molecular target: Gal(a1-3)Gal(b1-3)[Fuc(a1-4)]GlcNAc(b1-2)Man(a1-3)[Gal(a1-3)Gal(b1-3)[Fuc(a1-4)]GlcNAc(b1-2)Man(a1-6)]Man(b1-4)GlcNAc(b1-4)GlcNAc
In short: as §1

[36] = molecular target: Gal(a1-3)Gal(b1-4)Glc
In short: as §1

[37] = molecular target: Gal(a1-3)Gal(b1-4)GlcNAc
In short: as §1

B1: RVL (Remusatia vivipara), B5LYJ9 (protein)
chain: MAKLLLFLLPAILGLLVPRSAVALGTNYLLSGQTLDTEGHLKNGDFDLVMQDDCNLVLYNGNWQSNTANNGRDCKLTLTDYGELVIKNGDGSTVWKSGAQSVKGNYAAVVHPDGRLVVLGPSVFKIDPWVRGLNSLRFRNIPFTNNLLFSGQVLYGDGRLTAKNHQLVMQGDCNLVLYGGKYGWQSNTHGNGEHCFLRLNHKGELIIKDDDFKTIWSSRSSSKQGEYVLILQDDGFGVIYGPAIFETSSKRSIAAS
[1]
  glycan array binding signal (z-score): -0.302
[2]
  glycan array binding signal (z-score): 0.565
[3]
  glycan array binding signal (z-score): -0.163
[4]
  glycan array binding signal (z-score): -0.145
[5]
  glycan array binding signal (z-score): 0.393
[6]
  glycan array binding signal (z-score): -0.214
[7]
  glycan array binding signal (z-score): -0.108
[8]
  glycan array binding signal (z-score): -0.069
[9]
  glycan array binding signal (z-score): -0.308
[10]
  glycan array binding signal (z-score): -0.108
[11]
  glycan array binding signal (z-score): -0.36
[12]
  glycan array binding signal (z-score): -0.104
[13]
  glycan array binding signal (z-score): 0.076
[14]
  glycan array binding signal (z-score): -0.121
[15]
  glycan array binding signal (z-score): 0.2
[16]
  glycan array binding signal (z-score): -0.071
[17]
  glycan array binding signal (z-score): -0.274
[18]
  glycan array binding signal (z-score): -0.017
[19]
  glycan array binding signal (z-score): -0.363
[20]
  glycan array binding signal (z-score): -0.151
[21]
  glycan array binding signal (z-score): -0.001
[22]
  glycan array binding signal (z-score): -0.068
[23]
  glycan array binding signal (z-score): -0.041
[24]
  glycan array binding signal (z-score): -0.292
[25]
  glycan array binding signal (z-score): -0.315
[26]
  glycan array binding signal (z-score): -0.412
[27]
  glycan array binding signal (z-score): -0.261
[28]
  glycan array binding signal (z-score): -0.192
[29]
  glycan array binding signal (z-score): -0.182
[30]
  glycan array binding signal (z-score): -0.259
[31]
  glycan array binding signal (z-score): -0.241
[32]
  glycan array binding signal (z-score): 0.313
[33]
  glycan array binding signal (z-score): -0.166
[34]
  glycan array binding signal (z-score): -0.359
[35]
  glycan array binding signal (z-score): -0.039
[36]
  glycan array binding signal (z-score): -0.23
[37]
  glycan array binding signal (z-score): -0.206
